Screen size: about 45,000 compounds; about 65 (0.1%) were called active. The call rests on the fitted dose curve; in most records, active means well fitted activation curve with a large enough effect; inconclusive means small, poorly fitted or top-dose-only effect; inactive means no such curve, though single readings can be large or run the other way. The list shows a part of the results.
target: Galactocerebrosidase (Homo sapiens) (UniProt P54803); assay: A Novel Cell-Based Assay to Identify Small Molecules for B -Galactocerebrosidase; conditions: 145M-Twi-hGALC-G270D cells (Twitcher mouse brain line with human GALC G270D), HMU-beta-Gal fluorescence, 48 h; series mostly up to 57.5 µM; activation: at the top concentration; further: 0% is about no effect; nearly all actives have a fitted effect of over 65% in size
Outline: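 Brain-derived Twitcher mouse 145M-Twi cells stably expressing human GALC-G270D or wild-type GALC, treated live, then residual GALC activity read by fluorescence of HMU-b-Gal substrate (0.1 mM final) in citrate-phosphate buffer pH 5.2 with sodium taurocholate. Signal increase indicates enhancement.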

Chain of UniProt P54803 (P54803 whole entry, looked up): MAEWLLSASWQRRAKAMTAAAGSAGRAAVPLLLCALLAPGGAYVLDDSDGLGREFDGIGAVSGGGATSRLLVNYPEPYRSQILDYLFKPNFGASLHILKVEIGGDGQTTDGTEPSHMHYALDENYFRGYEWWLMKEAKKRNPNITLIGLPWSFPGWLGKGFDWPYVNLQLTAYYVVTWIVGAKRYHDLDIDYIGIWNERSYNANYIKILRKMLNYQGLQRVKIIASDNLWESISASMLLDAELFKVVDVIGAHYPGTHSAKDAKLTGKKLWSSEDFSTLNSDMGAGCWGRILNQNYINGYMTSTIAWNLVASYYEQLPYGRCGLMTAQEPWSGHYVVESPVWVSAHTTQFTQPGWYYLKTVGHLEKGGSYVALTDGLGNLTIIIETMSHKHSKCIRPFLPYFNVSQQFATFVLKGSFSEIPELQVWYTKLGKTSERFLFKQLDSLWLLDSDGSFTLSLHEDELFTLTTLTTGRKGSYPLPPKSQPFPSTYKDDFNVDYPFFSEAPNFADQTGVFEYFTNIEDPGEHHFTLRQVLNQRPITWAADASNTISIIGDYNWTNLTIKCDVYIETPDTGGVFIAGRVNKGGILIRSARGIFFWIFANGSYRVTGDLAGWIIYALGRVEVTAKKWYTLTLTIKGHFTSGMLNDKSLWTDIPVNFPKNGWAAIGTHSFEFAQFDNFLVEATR

activation, inactive:
CC(C)(C)C1CCc2oc3ccc(NS(=O)(=O)c4cc(Cl)ccc4Cl)cc3c2C1 (stereo not drawn) -11.5%, O=C(Cn1cc(SCc2cccc(F)c2)c2ccccc21)N1CCOCC1 -6.91%, CCCC(=O)OC1=CN(Cc2ccccc2)S(=O)(=O)c2ccccc21 -10.2%, CCOC(=O)c1c(SCC(=O)Nc2nc3ccc(C)cc3s2)nc(=O)[nH]c1C -4%, CCC(=O)N1N=C(c2ccc(OC)cc2)CC1c1cn(-c2ccccc2)nc1-c1cccs1 (stereo not drawn) -10.6%, O=C(c1cc(-c2ccc(Br)cc2)n[nH]1)N1CCN(S(=O)(=O)c2ccc(Br)cc2)CC1 -12.1%, CN(C)C(=N)N=C(N)N -13%, COC(=O)CSc1nc2c(cnn2-c2ccc(F)cc2)c(=O)[nH]1 -13.9%, CCOc1ccc(N(c2nc(-c3ccc(OC)c(OC)c3)no2)c2nc(-c3ccc(OC)c(OC)c3)no2)cc1 -7.74%, CC(=O)N1c2ccc(S(=O)(=O)N3CCN(c4ccc(C)cc4C)CC3)cc2CC1C (stereo not drawn) -2.18%, O=C(Cn1ccn(-c2ccc(F)cc2)c(=O)c1=O)NCCc1ccccc1 -8.99%, CCOC(=O)c1cnc2ccc(C)cc2c1Nc1ccc(OCc2ccccc2Cl)cc1 -16.1%, COc1ccccc1N(CC(=O)NCCSCc1ccccc1Cl)S(C)(=O)=O -2.23%, CCc1ccccc1NC(=O)Cn1ncc2c(C)n(Cc3ccccc3F)c(C)c2c1=O -9.5%, CC(C)CNC(=O)CCSc1nc(-c2ccc3c(c2)OCO3)cc(C(F)(F)F)n1 -4.08%, CCc1ccc(NC(=O)CC2C(=O)OCCN2CC)cc1 (stereo not drawn) 7.15%, CCOc1ccccc1NC(=O)C(CC(C)C)NS(=O)(=O)c1ccc2c(c1)CCN2C(C)=O (stereo not drawn) -13.5%, CCOC(=O)c1ccc(N2C(=O)c3n[nH]c(-c4cccs4)c3C2c2cccc(F)c2)cc1 (stereo not drawn) -12.2%, Cc1oc(-c2cccc(Br)c2)nc1CN1CCC(C(=O)NCCc2ccc(Cl)cc2)CC1 -16.6%, CC(C)[C@H](N)C(=O)OCCOCn1cnc2c(=O)[nH]c(N)nc21 -14%, O=C(Cn1c(=O)n(Cc2nc(-c3ccccc3)no2)c(=O)c2cc3c(cc21)OCO3)Nc1ccc(Cl)cc1 -11.6%, Cc1ccc(C)c(N2CCN(c3ccc(NC(=O)c4cccs4)cc3C(=O)O)CC2)c1 -8.09%, CN(C)c1ccc(NC(=O)CCSc2nc(-c3ccco3)cc(C(F)(F)F)n2)cc1 -25%, CCCCN(C)S(=O)(=O)c1cc(-c2nnc3c4ccccc4c(C)nn23)ccc1C -3.6%, CCOc1ccc(-n2c(=O)c3c(C)c(C)sc3n(CC(=O)c3ccccc3)c2=O)cc1 -19.1%, CCc1ccc(-n2nc(C)c3c(C)cc(=O)n(CC(=O)Nc4ccc(C)c(F)c4)c32)cc1 -4.5%, CCN(CC)CCCNC(=O)c1c(C)oc2ncn(CC(C)C)c(=O)c12 1.81%, COc1cc(Br)c(C2CC(=O)Nc3cc(OC)c(OC)c(OC)c32)cc1OC (stereo not drawn) -8.82%, CC1CCc2c(sc(NC(=O)CCCOc3ccc(C(C)(C)C)cc3)c2C(N)=O)C1 (stereo not drawn) -4.39%, COc1ccccc1C(=O)CC1(O)C(=O)N(CC(N)=O)c2ccccc21 (stereo not drawn) -9.9%, CCc1ccccc1NC(=O)C1=CC(c2ccc3c(c2)OCO3)=NS(=O)(=O)N1C -4.7%, CCOc1ccccc1NC(=O)Cn1c(=O)n(Cc2ccco2)c(=O)c2cccnc21 12.9%, CC(C)(C)c1ccc(C(=O)Nc2ccc3nc(SCC(=O)N4CCCC4)sc3c2)cc1 -19.3%, O=C(CSc1nc(-c2ccccc2)[nH]c1-c1ccc(F)cc1)NC1CCCC1 -15%, COc1ccccc1C(=O)N1CCC(c2c[nH]c3ccccc23)(c2c[nH]c3ccccc23)CC1 -12.4%, CCC(=O)N1CCc2cc(S(=O)(=O)NC(Cc3ccccc3)C(=O)Nc3ccc(Cl)cc3)ccc21 (stereo not drawn) -11%, CC(C)c1ccc(S(=O)(=O)Nc2cc3c(cc2NCc2ccccc2)n(C)c(=O)n3C)cc1 -5.95%, CCCC(=O)Nc1c(C(=O)N2CCN(c3ccccc3)CC2)oc2ccccc12 -15.6%
